Experimental data from publication PMC8060364, “RNA binding of Hfq monomers promotes RelA-mediated hexamerization in a limiting Hfq environment” (Nature Communications, 2021).

What follows are binders tested against T1, Hfq wild type (purified) (E. coli, UniProt P0A6X3) (assay: native gel or EMSA; limiting wild type Hfq (from 0.5 nM) mixed with Hfq mutant (4.5 nM) at different ratios, with RelA and labeled RNA (1 nM; sodA 210 nt or RyhB 50 nt), binding buffer C, 22 °C for 10 min, 4% native gel; the labeled RNA is what is seen). Details: both partners purified.
T1 construct: RNA chaperone Hfq of E. coli; the hfq gene amplified with primers 2687-2351 and cloned in pET-15b with NcoI/BamHI; No tag is stated for Hfq although it was purified on a His Trap column; Cloning at NcoI/BamHI of pET-15b probably leaves out the vector's His tag (surmise); also called PT7-Hfq; source: E. coli BL21-DE3 Δhfq carrying pET-15b, purified (heated at 85 °C, RNase A, His Trap Chelating HP …)

| binding result | Binder |
| --- | --- |
| binds | Hfq:D9A proximal face mutant (purified) (natural protein, Hfq of E. coli with D9A, introduced in PT7-Hfq (primers 3168-3169); Same construct as m1 except for the mutation; No tag is stated; source: E. coli BL21-DE3 Δhfq carrying pET-15b, purified (heated at 85 °C, RNase A, His Trap Chelating HP column)) not shown |
| binds | Hfq:I30D distal mutant (purified) (natural protein, Hfq of E. coli with I30D, introduced in PT7-Hfq (primers 3054-3055); Same construct as m1 except for the mutation; No tag is stated; source: E. coli BL21-DE3 Δhfq carrying pET-15b, purified (heated at 85 °C, RNase A, His Trap Chelating HP column)) not shown |
| binds | Hfq:G29A distal mutant (purified) (natural protein, Hfq of E. coli with G29A, introduced in PT7-Hfq (primers 3170-3171); Same construct as m1 except for the mutation; No tag is stated; source: E. coli BL21-DE3 Δhfq carrying pET-15b, purified (heated at 85 °C, RNase A, His Trap Chelating HP column)) not shown |
